# From the supplement of paper PMC6746778
# The other results are listed elsewhere or left out. Repeats are few or missing, and single values can be far off.
# Columns and labels:
# Test in all cases: proliferation Z-score within cell line (SRB, relative to all inhibitors screened on that line); triple-negative breast cancer lines and a kinase inhibitor library; SRB is the sulforhodamine B protein stain; higher = less growth inhibition (more resistant)
# Settings in all cases: concentration: 1 µM; 4 days
# Bt20 = test system: Bt20
# Bt549 = test system: Bt549
# HCC1143 = test system: HCC1143
# HCC1806 = test system: HCC1806
# HCC1937 = test system: HCC1937
# HCC38 = test system: HCC38
# HCC70 = test system: HCC70
# Hs578T = test system: Hs578T
# MDA-MB-231 = test system: MDA-MB-231
# MDA-MB-435s = test system: MDA-MB-435s
# MDA-MB-436 = test system: MDA-MB-436
# MDA-MB-453 = test system: MDA-MB-453
# MDA-MB-468 = test system: MDA-MB-468
# SKBR7 = test system: SKBR7
# SUM1315MO2 = test system: SUM1315MO2
# SUM149PT = test system: SUM149PT
# SUM159PT = test system: SUM159PT
# SUM185PE = test system: SUM185PE
# SUM229PE = test system: SUM229PE
# SUM52PE = test system: SUM52PE
# 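Further: Single-dose primary screen of a 378-member kinase inhibitor library in 96-well plates, with growth read as absorbance of protein-bound SRB dye after TCA fixation.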
Structure (SMILES),proliferation Z-score within cell line (Bt20),proliferation Z-score within cell line (Bt549),proliferation Z-score within cell line (HCC1143),proliferation Z-score within cell line (HCC1806),proliferation Z-score within cell line (HCC1937),proliferation Z-score within cell line (HCC38),proliferation Z-score within cell line (HCC70),proliferation Z-score within cell line (Hs578T),proliferation Z-score within cell line (MDA-MB-231),proliferation Z-score within cell line (MDA-MB-435s),proliferation Z-score within cell line (MDA-MB-436),proliferation Z-score within cell line (MDA-MB-453),proliferation Z-score within cell line (MDA-MB-468),proliferation Z-score within cell line (SKBR7),proliferation Z-score within cell line (SUM1315MO2),proliferation Z-score within cell line (SUM149PT),proliferation Z-score within cell line (SUM159PT),proliferation Z-score within cell line (SUM185PE),proliferation Z-score within cell line (SUM229PE),proliferation Z-score within cell line (SUM52PE)
Cc1ncc(-c2ccnc(Nc3ccc(S(C)(=O)=O)cc3)n2)n1C(C)C,0.401,-0.7,-0.564,0.605,0.693,0.52,-0.254,0.244,-1.41,-0.131,-0.286,-0.425,-0.616,-1.15,0.723,0.477,-0.937,1.43,0.358,0.17
Cc1cn(-c2cc(NC(=O)c3ccc(C)c(Nc4nccc(-c5cccnc5)n4)c3)cc(C(F)(F)F)c2)cn1 [Nilotinib (AMN-107)],1.2,0.247,0.952,1.47,0.737,0.614,0.755,0.117,0.864,1.02,0.631,0.573,1.03,0.664,1.18,1.26,0.664,1.14,1.45,1.22
COc1cc2c(Oc3ccc(NC(=O)C4(C(=O)Nc5ccc(F)cc5)CC4)cc3F)ccnc2cc1OCCCN1CCOCC1,-0.832,0.767,0.773,0.493,0.399,0.416,0.877,-0.00111,-1.04,-1.7,0.657,0.439,-1.35,-0.301,-0.43,-0.445,0.601,-1.63,-0.69,-1.36
CNC(=O)c1cc(Oc2ccc(NC(=O)Nc3ccc(Cl)c(C(F)(F)F)c3)cc2)ccn1 [Sorafenib],0.76,0.7,1.01,1.66,0.537,0.501,0.626,0.451,0.409,0.541,0.835,0.803,0.719,0.128,0.0246,0.185,0.498,-0.00153,1.7,-0.977
CCCCOc1c(C(=O)c2c(F)cc(C)cc2F)c[nH]c2nncc1-2,-0.302,0.447,0.571,0.23,0.441,0.589,0.439,0.631,1.02,0.788,0.169,0.313,0.535,-0.235,0.816,0.0873,0.511,0.0564,0.149,0.476
COc1cc(N2CCC(N)CC2)ccc1Nc1ncc(Cl)c(-c2c[nH]c3ccccc23)n1,0.41,0.379,-1.07,-1.4,-0.238,0.512,0.367,0.174,-1.21,-2.06,-0.639,-1.3,-0.508,-0.573,-1.7,-1.26,0.294,-2.37,-1.2,-1.84
C[C@@H](Oc1cc(-c2cnn(C3CCNCC3)c2)cnc1N)c1c(Cl)ccc(F)c1Cl,0.719,0.818,1.3,0.733,1.06,0.451,0.907,0.0707,-0.944,-0.655,0.927,0.65,-0.264,-0.172,1.16,0.971,0.715,0.993,0.398,0.402
